Reference: the RNAGym collection of RNA variant scans (doi:10.1093/nar/gkz1192)
Read counts are not given, so values of variants with three or more changes are uncertain.

B1: CPEB3 Ribozyme (parent)
chain: UAACAGGGGGCCACAGCAGAAGCGUUCACGUCGCAGCCCCUGUCAGAUUCUGGUGAAUCUGCGAAUUCUGCUGUAUAUCUC

Variants of: B1
Assay: self-cleavage, relative activity (ratio to wild type); higher = more cleavage; in vitro, sequencing
In short: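 CPEB3 self-cleaving ribozyme mutant libraries were made by rounds of error-prone PCR, barcoded, and transcribed in vitro with T7 RNA polymerase for 5 hours at 37°C. Cleavage occurred during transcription and a 15 min DNase I step before EDTA stop. RNAs were reverse transcribed with template switching and Illumina-sequenced, with DNA sequencing mapping barcodes to variants. Relative activity is the variant's cleaved/total read fraction divided by wild type's (minimum 5 reads), averaged across three batches.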

Variant | self-cleavage
UAACAGGGGGCCACAGCAGAGGCGUUCACGUCGCAGCCCCUGUCAGGUUCUGGUGAAUCUGCGAGUACUGCUGUAUAUCUC | 0.1
UAACAGGGGGCCACAGCAGAGGCGUUCACGUCGCAGCCCCUGUCAGGUUCUGCUGGAUCUGCGAAUUCUGCCGUAUAUCUC | 0.15
UAACAGGGGGCCACAGCAGAGGCGUUCACGUCGCAGCCCCUGUCAGGCUCUGGUGAAUCCGCGAAUUCUGCUGUAUAUCUC | 0.08
UAACAGGGGGCCACAGCAGAGGCGUUCACGUCGCAGCCCCUGUCAGGUCCUGGUGUAUCUGCGAACUCUGCUGUAUAUCUC | 0.25
UAACAGGGGGCCACAGCAGAGGCGUUCACGUCGCAGCCCCUGUCAGGUCCUGGUGAGUCUGCGAAUUCUGCUGUAUAUCAC | 0.06
UAACAGGGGGCCACAGCAGAGGCGUUCACGUCGCAGCCCCUGUCAGGUUCCGGUGAAUCUGCGAAUUCUGCUGUAUACCUC | 0.25
UAACAGGGGGCCACAGCAGAGGCGUUCACGUCGCAGCCCCUGUCAGGUUCUGGUGAACCUGUGAAUUCUGCUGUAUAUCUC | 0.1
UAACAGGGGGCCACAGCAGAGGCGUUCACGUCGCAGCCCCUGUCAGGUUCUGGUGAAUCUGCGAAUUCUGCCGUAUAUCUC | 0.66
UAACAGGGGGCCACAGCAGAGGCGUUCACGUCGCAGCCCCUGUCAGUUUCUGGUGAGUUUGCGAAUUCUGCUGUAUAUCUC | 0.08
UAACAGGGGGCCACAGCAGAGGCGUUCACGUCGCAGCCCCUGUCAGUUUCUGGUGAAUCUGCGAAUUCUGCUGUUUAUCUC | 0.44
UAACAGGGGGCCACAGCAGAGGCGUUCACGUCGCAGCCCCUGUCAGUUUCAGGUGAAUCUGCGUAUUCUGCUGUAUAUCUC | 0.06
UAACAGGGGGCCACAGCAGAGGCGUUCACGUCGCAGCCCCUGUCAGAUUCUGGUGCAUCUGCGAAUUCUGCUGCAUAUCUC | 0.58
UAACAGGGGGCCACAGCAGAGGCGUUCACGUCGCAGCCCCUGUCAGAUUCUGGUGGUUCUGCGAAUCCCGCUGUAUAUCUC | 0.07
UAACAGGGGGCCACAGCAGAGGCGUUCACGUCGCAGCCCCUGUCAGAUUCUGGUGGAUCUGCGAAUUCUGCUUCAUAUCUC | 1.07
UAACAGGGGGCCACAGCAGAGGCGUUCACGUCGCAGCCCCUGUCAGAUUCUGGUGGAUCUGCGAAUUCUGCAGUAUAUCUC | 0.14
UAACAGGGGGCCACAGCAGAGGCGUUCACGUCGCAGCCCCUGUCAGAUUCUGGUGGAUCUGCGAAUUCUGCGGUAAAUCUC | 0.2
UAACAGGGGGCCACAGCAGAGGCGUUCACGUCGCAGCCCCUGUCAGAUUCUGGUGGAUCUGCGAAUUCUGCUGCAUAUCUC | 1.02

Variant | self-cleavage
UAACAGGGGGCCACAGCAGAGGCGUUCACGUCGCAGCCCCUGUCAGAUUCUGGUGGAUCUGCGAAUUCUGCUGUAAAUCUC | 0.75
UAACAGGGGGCCACAGCAGAGGCGUUCACGUCGCAGCCCCUGUCAGAUUCUGGUGGAUCUGCGAAUUCUGCUGUACAUCUC | 0.49
UAACAGGGGGCCACAGCAGAGGCGUUCACGUCGCAGCCCCUGUCAGAUUCUGGUGUACCUGCGAAUUCUGCUGUAUAUCUC | 0.35
UAACAGGGGGCCACAGCAGAGGCGUUCACGUCGCAGCCCCUGUCAGAUUCUGGUGUAUCAGCGAAUUCUGCUGUAUAUCUC | 0.23
UAACAGGGGGCCACAGCAGAGGCGUUCACGUCGCAGCCCCUGUCAGAUUCUGGUGUAUCUGCGAAUUCAGCUGUAUAUCUC | 0.05
UAACAGGGGGCCACAGCAGAGGCGUUCACGUCGCAGCCCCUGUCAGAUUCUGGUGUAUCUGCGAAUUCUGCAGUAUAUCUC | 0.09
UAACAGGGGGCCACAGCAGAGGCGUUCACGUCGCAGCCCCUGUCAGAUUCUGGUGUAUCUGCGAAUUCUGCAGUAAAUCUC | 0.43
UAACAGGGGGCCACAGCAGAGGCGUUCACGUCGCAGCCCCUGUCAGAUUCUGGUGUAUCUGCGAAUUCUGCCGUAUAUCUC | 0.18
UAACAGGGGGCCACAGCAGAGGCGUUCACGUCGCAGCCCCUGUCAGAUUCUGGUGUAUCUGCGAAUUCUGCCGCAUAUCUC | 0.18
UAACAGGGGGCCACAGCAGAGGCGUUCACGUCGCAGCCCCUGUCAGAUUCUGGUGUAUCUGCGAAUUCUGCCGUAUACCUC | 0.24
UAACAGGGGGCCACAGCAGAGGCGUUCACGUCGCAGCCCCUGUCAGAUUCUGGUGACUCUGCGAAUUCUGCCGUAUACCUC | 0.23
UAACAGGGGGCCACAGCAGAGGCGUUCACGUCGCAGCCCCUGUCAGAUUCUGGUGAGUCUGCGUAUUCUGCUGUAUAUCUC | 0.24
UAACAGGGGGCCACAGCAGAGGCGUUCACGUCGCAGCCCCUGUCAGAUUCUGGUGAGUCUGCGAAUUCUGCUGUGUAUCUC | 0.42
UAACAGGGGGCCACAGCAGAGGCGUUCACGUCGCAGCCCCUGUCAGAUUCUGGUGAGUCUGCGAAUUCUGAUGUAUAUCUC | 0.14
UAACAGGGGGCCACAGCAGAGGCGUUCACGUCGCAGCCCCUGUCAGAUUCUGGUGAGUCCGCGAAUUCGGCUGUAUAUCUC | 0.2
UAACAGGGGGCCACAGCAGAGGCGUUCACGUCGCAGCCCCUGUCAGAUUCUGGUGAGUCUGCGAAUUCAGCUGUAUAUCCC | 0.15
UAACAGGGGGCCACAGCAGAGGCGUUCACGUCGCAGCCCCUGUCAGAUUCUGGUGAGUCUGCGAAUUCUGCAGUACAUCUC | 0.4
